Some of the results follow. Sequences were assembled here from the parent chain. Inactive controls read about 0.05.
B1: TEV protease; numbered along this chain (parent)
chain: MGESLFKGPRDYNPISSSICHLTNESDGHTTSLYGIGFGPFIITNKHLFRRNNGTLVVQSLHGVFKVKDTTTLQQHLVDGRDMIIIRMPKDFPPFPQKLKFREPQREERICLVTTNFQTKSMSSMVSDTSCTFPSGDGIFWKHWIQTKDGQCGSPLVSTRDGFIVGIHSASNFTNTNNYFTSVPKNFMELLTNQEAQQWVSGWRLNADSVLWGGHKVFMVKPEEPFQPVKEATQL

Variants of: B1
Experiment: raw area under fraction-flipped curve 0-4 h after induction (AUC4h, not background-subtracted), DNA-recorder readout of cleavage of the substrate (dimensionless); higher = more cleavage of the substrate by the protease variant
Details: temperature: 34 °C; time window: 0-4 h after rhamnose induction
Method: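 In vivo DNA recorder in E. coli TOP10(DE3) ΔrhaA at 34 °C. Each TEVp single-site mutant (parent TEVp 0) is paired with a single-site variant of the 7-mer TEVs (canonical ENLYFQ|S). The substrate sits between flexible linkers in a Bxb1-sfGFP-TEVs-SsrA fusion, so cleavage stabilises Bxb1 and speeds flipping of a recombination array, read by NGS. The value is the raw area under the fraction-flipped curve over 0-4 h after rhamnose induction (AUC4h), with ≥20 reads per time point. It is not background-subtracted; inactive controls average about 0.047.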
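Further: Bxb1 expression induced with 0.2% (w/v) L-rhamnose at OD600 near 0.5, cultures sampled hourly, flipped fraction per protease–substrate barcode pair counted by paired-end Illumina sequencing.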

Row | Variant | area with substrate ANLYFQS | area with substrate CNLYFQS | area with substrate DNLYFQS | area with substrate GNLYFQS | area with substrate HNLYFQS | area with substrate INLYFQS | area with substrate KNLYFQS | area with substrate LNLYFQS | area with substrate MNLYFQS | area with substrate NNLYFQS | area with substrate PNLYFQS | area with substrate RNLYFQS | area with substrate SNLYFQS | area with substrate TNLYFQS | area with substrate WNLYFQS | area with substrate YNLYFQS | area with substrate FNLYFQS | area with substrate VNLYFQS | area with substrate QNLYFQS
1 | MGESLFKGPRAYNPISSSICHLTNESDGHTTSLYGIGFGPFIITNKHLFRRNNGTLVVQSLHGVFKVKDTTTLQQHLVDGRDMIIIRMPKDFPPFPQKLKFREPQREERICLVTTNFQTKSMSSMVSDTSCTFPSGDGIFWKHWIQTKDGQCGSPLVSTRDGFIVGIHSASNFTNTNNYFTSVPKNFMELLTNQEAQQWVSGWRLNADSVLWGGHKVFMVKPEEPFQPVKEATQL [D11A] | 0.0697 | 0.0558 | 0.0852 | 0.0537 | 0.0598 | 0.0676 | 0.0745 | 0.0496 | 0.0659 | 0.067 | 0.0651 | 0.072 | 0.065 | 0.0621 | 0.0564 | 0.0712 | – | – | –
2 | MGESLFKGPRDYNPISSSICHLTNESDGHTTSLYGIGFGPFIITNKNLFRRNNGTLVVQSLHGVFKVKDTTTLQQHLVDGRDMIIIRMPKDFPPFPQKLKFREPQREERICLVTTNFQTKSMSSMVSDTSCTFPSGDGIFWKHWIQTKDGQCGSPLVSTRDGFIVGIHSASNFTNTNNYFTSVPKNFMELLTNQEAQQWVSGWRLNADSVLWGGHKVFMVKPEEPFQPVKEATQL [H47N] | 0.0389 | 0.064 | 0.0788 | 0.06 | 0.0698 | 0.0566 | 0.0495 | – | 0.0533 | 0.0606 | 0.0486 | – | – | 0.0561 | 0.0556 | 0.0569 | 0.0643 | 0.0506 | –
3 | MGESLFKGPRDYNPISSSICHLTNESDGHTTSLYGIGFGPFIITNKHLFRRNNGTLVVQSLHGVFKVKDTTTLQQHLVDGRDMIIIRMPKDFPPFPQKLKFREPQREERICLVTTNFQTKSMSSMVSDTSCTFPSGDGIFWKHWIQTKDGQCGSPLVSTRDGFIVGIHSASNFTNTNNYFTSVPKNFMELLTNQEAQQWVSGWRLNADSVLWGGDKVFMVKPEEPFQPVKEATQL [H215D] | 0.0569 | 0.07 | 0.0548 | 0.0353 | 0.0563 | 0.0616 | 0.0628 | 0.0737 | – | 0.0703 | 0.0526 | – | 0.057 | 0.0586 | 0.054 | 0.0509 | – | – | –
4 | MGESLFKGPRDYNPISSSICHLTNESDGHTTSLYGIGFGPFIITNKHLFRRNNGTLVVQSLHGVFKVKDSTTLQQHLVDGRDMIIIRMPKDFPPFPQKLKFREPQREERICLVTTNFQTKSMSSMVSDTSCTFPSGDGIFWKHWIQTKDGQCGSPLVSTRDGFIVGIHSASNFTNTNNYFTSVPKNFMELLTNQEAQQWVSGWRLNADSVLWGGHKVFMVKPEEPFQPVKEATQL [T70S] | 0.0749 | 0.0652 | 0.0721 | – | 0.0723 | 0.0813 | – | 0.0758 | 0.067 | 0.0482 | 0.0925 | – | 0.0747 | 0.0745 | – | – | 0.0621 | 0.0656 | –
5 | MGESLFKGPRDYNPISSSICHLTNESDGHTTSLYGIGFGPFIITNKHLFRRNNGTLVVQSLHGVFKVKDTTTLQQHLSDGRDMIIIRMPKDFPPFPQKLKFREPQREERICLVTTNFQTKSMSSMVSDTSCTFPSGDGIFWKHWIQTKDGQCGSPLVSTRDGFIVGIHSASNFTNTNNYFTSVPKNFMELLTNQEAQQWVSGWRLNADSVLWGGHKVFMVKPEEPFQPVKEATQL [V78S] | 0.0565 | 0.0585 | 0.0474 | 0.0515 | – | 0.0345 | – | 0.053 | 0.0639 | 0.0413 | 0.0618 | – | 0.0556 | 0.0534 | 0.0427 | – | – | 0.0656 | –
6 | MGESLFKGPRDYNPISSSICHLTNESDGHTTSLYGIGFGPFIITNKHLFRRNNGTLVVQSLHGVFKVKDTTTLQQHLVDGRDMIIIRMPKDFPPFPQKLKFREPQREERICLVTTNFQTKSMSSMVSDTSCTFPSGNGIFWKHWIQTKDGQCGSPLVSTRDGFIVGIHSASNFTNTNNYFTSVPKNFMELLTNQEAQQWVSGWRLNADSVLWGGHKVFMVKPEEPFQPVKEATQL [D137N] | 0.076 | 0.0586 | 0.0822 | 0.0589 | 0.0617 | 0.0543 | 0.0703 | 0.0615 | 0.0659 | 0.077 | 0.0653 | – | 0.0647 | 0.0675 | 0.0603 | 0.0643 | 0.049 | – | 0.0792
7 | MGESLFKGPRDYNPISSSICHLTNESDGHTTSLYGEGFGPFIITNKHLFRRNNGTLVVQSLHGVFKVKDTTTLQQHLVDGRDMIIIRMPKDFPPFPQKLKFREPQREERICLVTTNFQTKSMSSMVSDTSCTFPSGDGIFWKHWIQTKDGQCGSPLVSTRDGFIVGIHSASNFTNTNNYFTSVPKNFMELLTNQEAQQWVSGWRLNADSVLWGGHKVFMVKPEEPFQPVKEATQL [I36E] | 0.0367 | 0.0505 | 0.0458 | 0.0482 | 0.0439 | 0.0441 | 0.055 | 0.0499 | 0.0396 | 0.0545 | 0.0452 | – | 0.0511 | 0.033 | 0.0387 | – | – | 0.0427 | 0.0429
8 | MGESLFKGPRDYNPISSSICDLTNESDGHTTSLYGIGFGPFIITNKHLFRRNNGTLVVQSLHGVFKVKDTTTLQQHLVDGRDMIIIRMPKDFPPFPQKLKFREPQREERICLVTTNFQTKSMSSMVSDTSCTFPSGDGIFWKHWIQTKDGQCGSPLVSTRDGFIVGIHSASNFTNTNNYFTSVPKNFMELLTNQEAQQWVSGWRLNADSVLWGGHKVFMVKPEEPFQPVKEATQL [H21D] | 0.0723 | 0.0585 | 0.0269 | 0.0605 | 0.0573 | – | 0.0646 | 0.0518 | 0.0614 | 0.0516 | 0.0442 | – | 0.0631 | 0.0594 | – | 0.0547 | 0.0548 | 0.0634 | 0.0451
9 | MGESLFKGPRDYNPISSSICHLTNESDGHTTSLYGIGFGPFIITNKHLFRRNNGTLVVQSLHGVFKVKDTTTLQQHLVDGRDMIIIRMPKDFPPFPQKLKFREPQREERICLVTTNFQTKSMSSMVSDTSCTFPSGDGIFWKHWIQTKDGQCGSPLVSTRDGFIVGIHSASNFTNTNNYFTSVPKNEMELLTNQEAQQWVSGWRLNADSVLWGGHKVFMVKPEEPFQPVKEATQL [F187E] | 0.0607 | 0.0526 | 0.046 | – | 0.0452 | 0.0555 | 0.0586 | 0.0353 | 0.0488 | – | – | 0.0587 | 0.0676 | 0.0579 | 0.0523 | 0.0554 | – | – | 0.0521
